# Measurements reported in PubChem BioAssay AID1240 (Sanford-Burnham Center for Chemical Genomics, 2008).
# In all, about 50,000 compounds went through this assay and about 800 (1.6%) showed an effect of 50% or more. Some of the results follow.
# Biological target: Bcl-2-like protein 10 (Homo sapiens) (UniProt Q9HD36)
# Test: TR3 peptide-Bcl-B binding displacers, biochemical primary FP assay, phenotype converters (AID 1240);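 also: 0% = Bcl-B with tracer peptide and DMSO and 100% = tracer peptide lacking Bcl-B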
# Conditions: GST-Bcl-B / FITC-TR3 peptide fluorescence polarization; stronger effect = higher value; compound at 3.75 mg/L
# UniProt Q9HD36, sequence (Q9HD36 whole entry, looked up): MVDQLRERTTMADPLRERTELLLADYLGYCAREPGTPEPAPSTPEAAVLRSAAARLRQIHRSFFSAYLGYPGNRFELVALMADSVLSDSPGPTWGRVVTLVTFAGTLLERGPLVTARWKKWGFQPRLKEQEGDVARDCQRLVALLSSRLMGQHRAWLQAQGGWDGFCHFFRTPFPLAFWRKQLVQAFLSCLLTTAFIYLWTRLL
row,Structure (SMILES),displacement
1,COc1cc(C2NC(=S)NC(C)=C2C(=O)Nc2cccc(C)c2)cc(OC)c1OC (stereo not given),8.6%
2,O=C(CN(c1ccc(F)cc1)S(=O)(=O)c1ccccc1)NCc1ccco1,0.8%
3,Cn1c(-c2ccco2)nc2c3ccccc3c3ccccc3c21,14.9%
4,O=C(Nc1ccc(Cl)cn1)C12CC3CC(CC(C3)C1)C2,7.3%
5,NS(=O)(=O)c1ccc(NC(=O)C2CC2(c2ccccc2)c2ccccc2)cc1 (stereo not given),-2.1%
6,Cc1ccc(-c2noc(COc3ccc4ccccc4c3)n2)cc1,11%
7,COc1ccccc1OCCOc1ccc(C=O)cc1,9.4%
8,Cc1cc([N+](=O)[O-])c(-c2ccc(/C=C3/Sc4ccccc4C3=O)o2)cc1Cl,9.8%
9,O=[N+]([O-])c1cccc(NS(=O)(=O)c2cc(Cl)ccc2Cl)c1,-6.8%
10,C/C(=N/NC(=O)c1ccccc1[N+](=O)[O-])c1ccc(N2C(=O)C3CCCCC3C2=O)cc1 (stereo not given),-3.7%
11,O=C(N/N=C/c1ccc(F)cc1)c1cc(-c2ccc3ccccc3c2)n[nH]1,-4.5%
12,C=CCn1c2ccccc2c2nnc(SCC(=O)O)nc21,-17.1%
13,O=C1N=C(N2CCCCCC2)S/C1=C\c1ccccc1,-19%
14,CC(C)CN1C(=O)/C(=C/C2CC=CCC2)SC1=S (stereo not given),6.8%
15,COc1ccc(CC(=O)NC2C3CC4CC(C3)CC2C4)cc1OC (stereo not given),8.6%
16,COc1ccc(-c2cc(C(F)(F)F)n3nc(C(=O)N4CCOCC4)cc3n2)cc1,-0.7%
17,CCOC(=O)c1ccccc1NC(=O)c1ccncc1,-2.6%
18,COc1ccc(CNC(=O)CN(c2ccc(C)cc2)S(=O)(=O)c2ccc(SC)cc2)cc1,-3.6%
19,CC(=O)c1cnc2c(-c3ccccc3)c(C)nn2c1C,-2.3%
20,CCOC(=O)COc1cc(C)ccc1C(C)(C)C,-6.2%
21,O=C(/C=C/c1ccc(-c2ccccc2Cl)o1)c1ccc(F)cc1,6.5%
22,CC(=NCCc1ccccc1)c1c(C(F)(F)F)[nH]n(-c2nc3ccccc3s2)c1=O,-8.3%

row,Structure (SMILES),displacement
1,C#CCSc1nncn1C(=O)/C=C/c1cccs1,-18.2%
2,CCOC(=O)CSc1nc2ccc(N3C(=O)c4ccccc4C3=O)cc2s1,6.2%
3,Cc1[nH]n(-c2ccccc2)c(=O)c1N=Nc1ccccc1Br,-1.6%
4,COc1ccccc1N1CCN(C(=O)N2CCOCC2)CC1,-3.7%
5,Nc1ccc(-c2cn3ccsc3n2)cc1,-0.9%
6,CCOC(=O)Cc1nnc(Nc2ccc(OC)cc2)c2ccccc12,3.2%
7,Fc1ccc(/C=N/Nc2nnc(-c3ccccc3)c(-c3ccccc3)n2)cc1,5.2%
8,O=C(N/C(=C/c1ccc(-c2cccc([N+](=O)[O-])c2)o1)C(=O)N1CCCCC1)c1ccccc1,-10.5%
9,CC(Sc1ccc(Cl)cc1)C(=O)Nc1cccc2ccccc12 (stereo not given),1.6%
10,COc1cc(OC)cc(C(=O)N2CCN(c3ccccc3)CC2)c1,6.5%
11,CC(=O)OCC12c3ccccc3C(COC(C)=O)(c3ccccc31)C1C(=O)N(c3ccccc3)C(=O)C12 (stereo not given),-9.8%
12,COc1ccc(NC(=O)CSc2nc3ccc(N4C(=O)c5ccccc5C4=O)cc3s2)c([N+](=O)[O-])c1,0.3%
13,CCSc1nnc(NC(=O)CSc2ccccc2)s1,-6%
14,CC1(C)OC2(NC1=O)C1CC3CC(C1)CC2C3 (stereo not given),-0.8%
15,CCOc1ccc2nc(CCC(=O)O)[nH]c2c1,-8.4%
16,CCOC(=O)c1c(NC(=O)Cc2ccc(OC)cc2)sc(C(=O)Nc2cc(C(F)(F)F)ccc2Cl)c1C,7.8%
17,Cc1ccc(NC(=O)c2cc3ccccc3cc2O)c(C)c1,-1.7%
18,CCOc1ccc2nc(SC/C=C/c3ccccc3)sc2c1,-7.3%
19,CCOC(=O)c1sc(C)c(C(N)=O)c1N,7.5%
20,O=C(/C=C/c1ccc(F)cc1)NC(=S)Nc1ccccc1,-7.4%
21,C/C(=N\N1C(=O)CN(Cc2ccccc2)C1c1ccccc1)c1ccccc1 (stereo not given),-2.1%
22,O=C(c1ccccc1)N1CCCC2CCCCC21 (stereo not given),1.6%

row,Structure (SMILES),displacement
1,O=C(CN(Cc1ccccc1)S(=O)(=O)c1ccccc1)NCc1ccco1,4.5%
2,O=C1CS/C(=N/N=C/c2c3ccccc3cc3ccccc23)N1,-1.8%
3,COc1ccc2nc(NC(=O)C3CCCN3S(=O)(=O)c3ccc(C)cc3)sc2c1 (stereo not given),11.9%
4,O=C(O)/C=C\C(=O)Nc1ccc(OC(F)F)cc1,8%
5,COc1ccccc1NC(=O)c1ccc(CN(c2ccccc2)S(C)(=O)=O)cc1,4.9%
6,COc1ccc(-c2cc(C(=O)NC3CCCCCCC3)c3ccccc3n2)cc1OC,-6.8%
7,O=C(c1ccco1)N1CCc2ccccc21,17.9%
8,COc1cccc(OC)c1C(=O)N(C)c1ccccc1,0.7%
9,CC(C)(NC(=O)NCc1ccccc1)c1cccc(C(C)(C)NC(=O)NCc2ccccc2)c1,-2%
10,Cc1ccc(C(C)C)c(OCC(=O)Nc2cccc(S(N)(=O)=O)c2)c1,18.5%
11,CN(C)c1ccc(NC2=NS(=O)(=O)c3ccccc32)cc1,4.3%
12,COc1ccc(CN2CCN(Cc3ccccc3C(F)(F)F)CC2)cc1,-1%
13,Cc1cccc(C(=O)NCC(O)c2ccccc2)c1 (stereo not given),9%
14,COc1ccc(Br)c(/C=N/NC(=O)CCCCCCC(=O)N/N=C/c2cc(OC)ccc2Br)c1,24.3%
15,COc1cccc(N=Cc2ccc(O)cc2O)c1,9.2%
16,COc1cc(C2c3c(-c4ccccc4)n[nH]c3C(=O)N2c2ccccc2)ccc1O (stereo not given),0.4%
17,CCOC(=O)c1c(C)sc(Sc2ccc(Br)cc2[N+](=O)[O-])c1OC(C)=O,-2.7%
18,CCCOC(=O)c1c(NC(=O)CCCC(=O)O)sc2c1CCC(C)C2 (stereo not given),9.5%
19,COc1ccc(NC(=O)c2c(-c3c(Cl)cccc3Cl)noc2C)c(OC)c1,9.8%
20,CCOc1ccccc1N1C(=O)NC(=O)/C(=C/C=C/c2ccco2)C1=O,20.1%
21,CCOC(=O)c1c(NC(=O)Cc2ccc(OC)cc2)sc(C(=O)Nc2ccccc2OC)c1C,-3.7%
22,O=S(=O)(NCc1ccc(Cl)cc1)c1ccccc1,3%

row,Structure (SMILES),displacement
1,Cc1cc(NC(=O)c2sc3cc(F)ccc3c2Cl)no1,-3%
2,O=C(C(c1ccccc1)c1ccccc1)N1CCN(c2ccccc2)CC1,-1.9%
3,CCCCOc1ccc(C=C2C(=O)NC(=S)NC2=O)cc1OC,12.4%
4,O=C(NC(Cc1ccc([N+](=O)[O-])cc1)C(=O)NC1CCCC1)OCc1ccccc1 (stereo not given),-4%
5,Cc1ccc(-n2c(C)cc(/C=N/NC(=O)c3ccc(CN4CCOCC4)cc3)c2C)cc1,-24.7%
6,CC1CCN(C(=O)c2cc3nc(-c4ccccc4)cc(C(F)(F)F)n3n2)CC1,0%
7,O=C1CC(N2CCN(C/C=C/c3ccccc3)CC2)C(=O)N1c1cc(Cl)cc(Cl)c1 (stereo not given),5.8%
8,CCN1CCN(C(=O)c2ccc(F)cc2)CC1,-13.5%
9,Oc1ccc(N=Cc2cc(Br)cc(Br)c2O)cc1,19.8%
10,NC(=S)N/N=C/c1cn(-c2ccccc2)nc1-c1ccc(Cl)cc1,-5.2%
11,CN(C)CCNC(=O)COc1ccc2ccccc2c1,-5.3%
12,COC(=O)c1ccc(-n2c(C)cc(/C=C3/SC(N)=NC3=O)c2C)cc1,-17.2%
13,C/C(O)=C/c1nc2ccc([N+](=O)[O-])cc2nc1/C=C(/C)O,17.3%
14,Cc1cc(C)nc(/N=C(/NC(=O)Nc2cccc(Cl)c2)Nc2ccccc2)n1,-1.7%
15,O=C1C2C(c3ccc(Br)cc3)OC3(C(=O)c4ccccc4C3=O)C2C(=O)N1c1cccc([N+](=O)[O-])c1 (stereo not given),13.2%
16,COCCCN1C(=O)c2ccc3c4c(ccc(c24)C1=O)CC3,6.1%
17,CCOC(=O)CN(CP(=O)(OCC)OCC)CP(=O)(OCC)OCC,-4.9%
18,COCCOC(=O)C1=C(C)NC2=C(C(=O)CCC2)C1c1ccc(Cl)c([N+](=O)[O-])c1 (stereo not given),-7.8%
19,O=C(/C=C\Nc1ccc2[nH]ncc2c1)c1ccc(Br)cc1,23%
20,CC(c1ccccc1)c1nnc(NC(=O)Nc2ccc(Cl)cc2)s1 (stereo not given),2.3%
21,COc1ccc(/C=C2\C(=O)NC(=O)N(c3cccc(Br)c3)C2=O)cc1OC,120%
22,CCc1ccc(S(=O)(=O)Nc2c([N+](=O)[O-])ccc3ccccc23)cc1,4.6%

row,Structure (SMILES),displacement
1,O=C(/C=C\c1ccccc1)Nc1ccc(N2CCOCC2)cc1,4.5%
2,O=C(N/N=C/c1ccc(O)c(O)c1)c1ccccn1,5.7%
3,CCOC(=O)C1=C(C)N=c2s/c(=C\c3ccc(N(C)C)o3)c(=O)n2C1c1ccc(OCC)cc1 (stereo not given),-1.2%
4,CCN(C(=O)c1cc(Cl)ccc1OC)c1ccccc1C,-11.6%
5,COc1cc(/C=N/n2nnnc2N)ccc1OCc1c(C)no[n+]1[O-],22.5%
6,COc1cccc(-c2nnc(-c3ccc(Br)o3)o2)c1,-2.9%
7,NC(=O)c1ccc(NC(=O)c2ccccc2I)cc1,24%
8,CCOc1ccccc1NC(=O)CN(c1ccc(F)cc1)S(=O)(=O)c1ccccc1,-10.4%
9,CC(C)(c1cc(Cl)cc(Cl)c1)N1C(=O)C2=C(CCCC2)C1=O,5.1%
10,O=C(O)/C=C/C(=O)Nc1ccc(OC(F)(F)Cl)cc1,-9.1%
11,Cc1cccc(C)c1OC(=O)C(C)N1C(=O)c2ccccc2C1=O (stereo not given),1.2%
12,O=c1nc(-c2ccc(Cl)cc2)c2cc(Cl)ccc2[nH]1,-20.8%
13,O=C(Nc1ccccc1Cl)c1ccccc1Br,0.8%
14,OC(COc1ccc(C23CC4CC(CC(C4)C2)C3)cc1)CN1CCN(c2ccc(F)cc2)CC1 (stereo not given),-4%
15,COC(OC)c1cn(-c2ccccc2)nc1-c1ccccc1,7.8%
16,Nc1cc(=O)[nH]c(SCc2ccc(Cl)cc2Cl)n1,-27%
17,COc1ccc(C2CC(C(F)(F)F)n3nc(C(=O)N4CCN(C)CC4)c(Cl)c3N2)cc1 (stereo not given),1.1%
18,Cc1ccnc(NS(=O)(=O)c2ccc(NC(=O)c3ccccc3)cc2)n1,4.2%
19,Cc1ccc(-c2noc(COc3ccc(Cl)cc3C)n2)cc1,-10.7%
20,CCc1[nH]nc(C(=O)N/N=C/c2cccnc2)c1C,-21.3%
21,CC(=O)Nc1ccccc1NC(=O)c1cccc(Br)c1,3.9%
22,O=C1C2ON(c3ccccc3)C(c3ccc(Br)cc3)C2C(=O)N1c1ccccc1C(F)(F)F (stereo not given),12.8%
